Experimental data taken from the antibiotic and cytotoxicity screens of Wong et al. (2023).
Some of the results follow.

Key:
[1] = system: HSkMC (human skeletal muscle cells); experiment: cytotoxicity call (relative viability < 0.9); conditions: 10 µM
[2] = system: HepG2; experiment: cytotoxicity call (relative viability < 0.9); conditions: 10 µM
[3] = system: S. aureus RN4220; experiment: growth inhibition call (relative growth <= 0.2); conditions: 50 µM

Cc1noc(C)c1NC(=O)N(C)C[C@@H]1Oc2ncc(Br)cc2C(=O)N([C@@H](C)CO)C[C@H]1C
inactive: cytotoxicity call [1] | cytotoxicity call [2] | growth inhibition call [3]

CCNC(=O)C[C@@H]1CC[C@H](NC(=O)C2CC2)[C@H](CO)O1
inactive: cytotoxicity call [1] | cytotoxicity call [2] | growth inhibition call [3]

CCNC(=O)C[C@@H]1CC[C@@H](NC(=O)C2CCOCC2)[C@H](CO)O1
inactive: cytotoxicity call [1] | cytotoxicity call [2] | growth inhibition call [3]

CNC[C@H]1OCCCC[C@@H](C)Oc2ccc(NC(=O)Nc3cccc4ccccc34)cc2C(=O)N([C@H](C)CO)C[C@@H]1C
inactive: cytotoxicity call [1] | cytotoxicity call [2] | growth inhibition call [3]
